In all, about 110,000 compounds were measured (“z-score”: median about -0.1, highest 2% from about 2 on). The list shows a part of the results. Activity calls are given as the source filed them.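 Rule for the calls: active = z-score in the third read window above 3 or below -3; inactive = the rest.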
The compounds below were run against Metabotropic glutamate receptor 8 (Rattus norvegicus) (UniProt P70579) (assay: mGluR8 Gi/Go-coupled signaling modulation – cell-based, rat, thallium flux, HTS, primary screen (AID 488969)). Conditions: HEK293 rat mGluR8, GIRK (G protein-gated inwardly rectifying potassium channel) thallium flux, FluoZin2; at 10 µM; stronger effect = higher value; submaximal glutamate (EC20) added with thallium.
Chain of UniProt P70579 (P70579 whole entry, looked up): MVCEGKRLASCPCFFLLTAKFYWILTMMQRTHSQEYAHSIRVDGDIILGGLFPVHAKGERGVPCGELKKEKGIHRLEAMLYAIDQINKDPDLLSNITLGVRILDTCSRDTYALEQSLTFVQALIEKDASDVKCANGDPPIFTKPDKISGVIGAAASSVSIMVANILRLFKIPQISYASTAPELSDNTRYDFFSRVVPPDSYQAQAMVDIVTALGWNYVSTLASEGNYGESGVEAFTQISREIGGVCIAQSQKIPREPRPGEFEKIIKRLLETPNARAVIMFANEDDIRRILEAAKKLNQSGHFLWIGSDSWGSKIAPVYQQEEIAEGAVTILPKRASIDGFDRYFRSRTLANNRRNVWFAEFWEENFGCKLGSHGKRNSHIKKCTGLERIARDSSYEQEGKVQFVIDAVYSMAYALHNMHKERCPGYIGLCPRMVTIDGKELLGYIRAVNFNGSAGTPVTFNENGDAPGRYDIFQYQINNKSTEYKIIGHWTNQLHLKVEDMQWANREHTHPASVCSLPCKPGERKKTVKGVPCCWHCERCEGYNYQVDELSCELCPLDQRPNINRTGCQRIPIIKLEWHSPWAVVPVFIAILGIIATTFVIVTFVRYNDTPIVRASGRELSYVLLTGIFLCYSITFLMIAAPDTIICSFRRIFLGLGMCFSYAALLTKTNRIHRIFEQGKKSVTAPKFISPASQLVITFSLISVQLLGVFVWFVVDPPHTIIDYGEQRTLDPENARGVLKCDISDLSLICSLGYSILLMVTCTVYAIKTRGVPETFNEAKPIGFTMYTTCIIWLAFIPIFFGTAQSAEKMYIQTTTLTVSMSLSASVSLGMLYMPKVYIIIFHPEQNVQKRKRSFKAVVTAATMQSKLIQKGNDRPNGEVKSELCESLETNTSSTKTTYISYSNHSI
Work on CCOC(=O)/C(=N/Nc1ccc(Cl)cc1)Sc1nnnn1-c1ccc(C)cc1 yielded a z-score of -0.132.
Work on Cc1ocnc1C(=O)Nc1ccc(Cl)cc1 yielded a z-score of 0.123.
For CCC1CCCCN1c1nc(-c2cccc(OC)c2O)nc2ccccc12 (centres undefined), the z-score was -0.667.
In the case of CC(C)(C)OC(=O)N1CCCC1C(=O)N1CCc2ccccc21 (centres undefined), the z-score is reported as -0.138.
COCCCNCCCCOc1cccc(Br)c1 gave a z-score of 0.266.
For COc1ccc(N2CCN(S(=O)(=O)c3cccc4cccnc34)CC2)cc1, the z-score was -1.52.
Work on COc1cc(/C=N/NC(=O)C(=O)NCc2cccnc2)cc(OC)c1OC yielded a z-score of -0.176.
Cc1ccccc1S(=O)(=O)Cc1ccc(C(=O)NCCCOC(C)C)o1 showed a z-score of -2.92.
In the case of Cc1ccc(-c2c(C#N)c(N)nc3c2CCCCC3)cc1, the z-score is reported as -0.181.
Compound Cc1ccc(S(=O)(=O)NCC(=O)N(CC(=O)NCc2ccco2)Cc2ccc3c(c2)OCO3)cc1 has a z-score of -0.622.
In the case of CCc1nnc(NC(=O)c2sc3nc4c(cc3c2N)CCCCCC4)s1, the z-score is reported as -0.441.
COC(=O)c1cc(C(=O)c2cccc(Cl)c2Cl)cn1C showed a z-score of -0.263.
CCOc1ccc(C(=O)Nc2nc(C)cc(C)n2)cc1[N+](=O)[O-] gave a z-score of -0.36.
COc1ccc(NC(=S)NC(NC(=O)c2cccc(C)c2)C(Cl)(Cl)Cl)c([N+](=O)[O-])c1 (centres undefined) was tested, and the z-score was -0.54.
With COc1ccc(N2C(=O)CCC(C(=O)Nc3ccccn3)C2c2ccc(OC)c(OC)c2)cc1 (centres undefined) the z-score was 0.443.
Compound CCc1ccc2c(c1)cc(CN(C(=S)Nc1cccc(C)c1)C1CC1)c1nnnn12 has a z-score of -0.0835.
Compound CCOc1cccc(C(=O)Nc2cccc(-c3nnc(-c4ccc(C)cc4)o3)c2)c1 has a z-score of 0.689.
For CC(C)(C)NC(=O)COC(=O)c1cc(S(=O)(=O)N2CCCCC2)ccc1N1CCOCC1, the z-score was -0.0774.
For Cc1ccc(CNC(=O)c2c(C)cc(=O)oc2C)cc1, the z-score was 0.0838.
With COc1ccc(CCNC(=O)C2CCCN(Cc3nc(-c4ccccc4C)oc3C)C2)cc1OC (centres undefined) the z-score was 0.679.
Compound CN(C)c1nc(N2CCN(c3ccccc3)CC2)c(C#N)c(=O)o1 has a z-score of -0.0521.
Compound N#CCc1ccc(NC(=O)Nc2cccc(Cl)c2)cc1 has a z-score of -0.288.
O=C(CN(C1CCCCC1)S(=O)(=O)c1ccc(F)cc1)Nc1ccc2c(c1)OCO2 showed a z-score of 0.327.
COCCN(C(=S)Nc1ccccc1C)C(C)c1cccnc1 (centres undefined) was tested, and the z-score was -0.417.
Cc1ccc[n+](/C(C(=S)NCc2ccco2)=C(/[O-])c2ccccc2Cl)c1 was tested, and the z-score was 0.0163.
Work on Cc1ccc2c(c1)N(CCC(=O)NCc1cccnc1)C(=O)CO2 yielded a z-score of -0.561.
Cc1nn2c(CN(C(=O)CN3CCOCC3)c3ccccc3)nnc2c2ccccc12 was tested, and the z-score was 0.232.
For COc1cc(N2C(=O)c3ccccc3C2=O)c(Cl)cc1C(=O)OCC(=O)NCc1ccco1, the z-score was 0.165.
In the case of CCN(CCCNC(=O)C1CCCN(S(=O)(=O)c2cnc[nH]2)C1)c1ccccc1 (centres undefined), the z-score is reported as 0.079.
With Cc1cc(NC(=O)CSc2cn(CCNC(=O)c3ccccc3)c3ccccc23)no1 the z-score was -0.136.
For Cc1cccc(NC(=S)NCC(c2cccnc2)N2CCOCC2)c1C (centres undefined), the z-score was -0.228.
Work on Cc1c(C(Nc2ccccn2)c2ccccc2)c(=O)n(-c2ccccc2)n1C (centres undefined) yielded a z-score of -0.574.
Compound CCOC(=O)c1cnc(SCC(=O)c2ccc(C)cc2)nc1N has a z-score of -0.172.
CCC(C)N1CC(C(=O)NC2CCCCC2)CC1=O (centres undefined) was tested, and the z-score was 0.0107.
Work on CC(=O)N1CCC(N(CCN2CCOCC2)C(=S)Nc2cccc(C)c2C)CC1 yielded a z-score of -0.226.
With Cc1csc(SCC(=O)Nc2nc3ccccc3s2)n1 the z-score was active: 3.3.
For CCn1c(=O)[nH]c2cc(C(=O)N3CCN(c4ccccc4)CC3)ccc2c1=O, the z-score was -0.141.
With Cc1cccc(NC(=S)/N=C(\N)Nc2nc(C)c3cc(C)ccc3n2)c1 the z-score was -0.139.
For CN(Cc1ccccc1)Cc1nc2c(c(=O)n(C)c(=O)n2C)n1Cc1ccc(Cl)cc1, the z-score was -0.301.
With CCOc1ccc(CCn2c(-c3ccco3)nc3ccccc3c2=O)cc1OCC the z-score was -0.167.
With CCOC(=O)c1c(C)nc2c(c1-c1ccc(Cl)cc1)C(=O)CC(C)(C)C2 the z-score was -1.24.
In the case of O=C(NCc1ccco1)c1ccc(N2CCCC2=O)cc1, the z-score is reported as -1.41.
Cc1cccc(NC(=S)NCCc2ccc(S(N)(=O)=O)cc2)c1C gave a z-score of 0.061.
COc1ccc(NC(=O)C(OC)c2ccccc2)cc1Cl (centres undefined) was tested, and the z-score was -0.172.
For Cc1c(C(=O)OC(C)C)sc2nc[nH]c(=O)c12, the z-score was 0.168.
COc1cc(NC(=O)CN2c3ccccc3CC2C)cc(OC)c1OC (centres undefined) gave a z-score of 0.186.
With CCCOC(=O)C1C2C=CC(C3CC23)C1C(=O)OCC(=O)c1ccccc1 (centres undefined) the z-score was -0.407.
COc1ccc(-c2noc(CCC(=O)Nc3nc4ccccc4s3)n2)cc1 gave a z-score of -0.165.
With CCOc1ccc(OCC(=O)NCCc2nc3ccccc3[nH]2)cc1 the z-score was 0.585.
Compound CCOC(=O)CSc1nc(C(C)(C)C)cc(C(F)(F)F)c1C#N has a z-score of 0.256.
In the case of O=C(O)COc1ccc2nsnc2c1Cl, the z-score is reported as 0.463.
CCOC(=O)c1c(-c2ccc(C)cc2)csc1NC(=S)NC(=O)c1ccccc1 gave a z-score of 0.153.
CC(C)(C)OC(=O)NCCc1nnc(SCc2ccccc2Cl)o1 gave a z-score of -0.771.
With Cc1nc(SCC(=O)N2CCc3ccccc32)n[nH]1 the z-score was -0.751.
COc1ccccc1-c1nnc2sc(-c3ccc(N(C)C)cc3)nn12 showed a z-score of -1.04.
In the case of COC(=O)Cn1cnc(=O)c(C#N)c1/C=C/N(C)C, the z-score is reported as 0.0758.
Work on CCCCOC(=O)C1[C@H]2C(=O)N(CCc3ccccc3)C[C@]23C=C[C@H]1O3 (some centres undefined) yielded a z-score of -0.21.
Compound Cc1ccc2nc(C3CCN(S(=O)(=O)c4ccc5ccccc5c4)CC3)[nH]c2c1 has a z-score of -0.139.
For CCNC(=O)c1ccc2c(c1)C1C3CCC(C3)C1C(c1ccccc1)N2 (centres undefined), the z-score was -0.135.
Cc1ccc(C)c(N2CCN(C(=O)CSc3ccsc3[N+](=O)[O-])CC2)c1 showed a z-score of -0.509.
O=C(c1ccccc1NS(=O)(=O)c1ccc(Br)s1)N1CCOCC1 gave a z-score of -0.0452.
CCOC(=O)CSc1nc2sccc2c(=O)[nH]1 gave a z-score of 0.0125.
CCCCCSc1nc(O)cc(=O)[nH]1 was tested, and the z-score was -0.0443.
Work on O=C(COC(=O)c1cccc(S(=O)(=O)NCc2ccccc2)c1)Nc1ccccc1OC(F)F yielded a z-score of 0.042.
Cn1c(=O)c2c(nc(SCCN3CCOCC3)n2Cc2cccc3ccccc23)n(C)c1=O gave a z-score of -1.48.
For Cc1nc2ccc(NC(=O)Cc3ccsc3)cc2s1, the z-score was 0.12.
Cc1ccc(S(=O)(=O)N/N=C/c2ccc(OC3CSC3)cc2)cc1 was tested, and the z-score was 1.93.
Cc1nnc(-c2cnn(C)c2N)n1Cc1cccc(Cl)c1 showed a z-score of -0.116.
With C=CCOc1ccc(C2C(C#N)=C(N)N(Nc3ccccc3)C3=C2C(=O)CC(C)(C)C3)cc1OC (centres undefined) the z-score was -0.315.
Work on Cc1cccc(-c2cc3nc(C)cc(N4CC(C)CC(C)C4)n3n2)c1 (centres undefined) yielded a z-score of -0.214.
In the case of Clc1ccc(COn2c(-c3ccc(Cl)cc3Cl)nc3ncccc32)cc1, the z-score is reported as 0.283.
With CCCCC(=O)Nc1ccccc1C(=O)N1CCOCC1 the z-score was 0.0261.
Work on C=CCNC(=S)N/N=C/c1cn(-c2ccccc2)nc1-c1ccc(OC)cc1 yielded a z-score of -0.184.
Cc1nc(NC(=O)c2ccc(Br)s2)sc1C(=O)N(C)C was tested, and the z-score was 0.655.
With c1ccc(Cn2nnnc2C(c2cccs2)N2CCSCC2)cc1 (centres undefined) the z-score was -0.15.
CC(C)=CC(=O)OCC(=O)Nc1cccc([N+](=O)[O-])c1 was tested, and the z-score was 0.144.
With COC(=O)C1(C(O)C(=O)c2ccc(C)cc2C)CCCCC1 (centres undefined) the z-score was -0.653.
Work on CCC(C(=O)Nc1cc(C)nn1-c1nc(C)cc(C)n1)c1ccccc1 (centres undefined) yielded a z-score of -0.589.
COc1ccc(OCc2nc3ccccc3[nH]2)cc1 gave a z-score of 0.101.
With CCN(CC)c1cnn(C/C(=N\OC)c2ccc(Cl)cc2)c(=O)c1Br the z-score was -1.37.
CC1CCc2c(sc(NC(=O)C(=O)NCc3ccco3)c2C#N)C1 (centres undefined) was tested, and the z-score was active: 11.4.
Compound O=C(Nc1cccc(Cl)c1Cl)c1snnc1-c1ccccc1 has a z-score of -0.245.
Work on CS(=O)(=O)c1ccc(C(=O)OCC(=O)NC23CC4CC(CC(C4)C2)C3)cc1[N+](=O)[O-] yielded a z-score of -0.241.
CCCCCCn1c(SCCC)nc2c1c(=O)[nH]c(=O)n2C was tested, and the z-score was -0.205.
Work on Cc1ccc(NC(=O)COc2ccccc2CNC(C)(C)CC(C)(C)C)cc1 yielded a z-score of -0.282.
COc1ccccc1-c1nnc(SCC(=O)O)n1C was tested, and the z-score was -0.182.
In the case of Cc1ccc(NS(=O)(=O)c2cccc(C(=O)O)c2)cc1S(=O)(=O)N1CCOCC1, the z-score is reported as -0.184.
Compound COc1ccc(C2=NNC(c3cccs3)=Nc3ccc(OC)cc32)cc1 has a z-score of -0.175.
In the case of CCOC(=O)C(Cc1ccccc1)NC(=O)CCc1c(C)nc2ncnn2c1C (centres undefined), the z-score is reported as 0.11.
For CCc1ccc(N(C(=O)c2csnn2)C(C(=O)NCc2ccccc2)c2ccco2)cc1 (centres undefined), the z-score was -0.816.
O=c1ccnc(Sc2ncccc2[N+](=O)[O-])[nH]1 was tested, and the z-score was -0.0558.
With CNC(=O)c1nc(C)n(-c2cc(Cl)ccc2Cl)n1 the z-score was 0.33.
Work on CCOC(=O)CNC(=O)CSc1nc(N)cc(N)n1 yielded a z-score of -0.0826.
COc1ccc(NC(=O)Nc2nccs2)cc1 gave a z-score of 0.158.
For CS(=O)(=O)N(CC(=O)N/N=C/c1cccs1)c1cccc(Cl)c1Cl, the z-score was -0.706.
Work on CCCC1CCC(=NNC(=O)CNc2ccc(OC)cc2)CC1 (centres undefined) yielded a z-score of 0.000791.
COc1ccc(C)cc1NC(=O)COC(=O)Cc1ccc(-c2ccccc2)cc1 showed a z-score of -0.0516.
CCOC1(OCC)N=C(N)C2(C#N)C(c3cccc(C)c3)C12C#N (centres undefined) showed a z-score of 1.46.
With Cc1ccc(S(=O)(=O)N(C)C)cc1-n1c(SCC(=O)Nc2ccc(F)c(F)c2F)nc2ccccc2c1=O the z-score was -0.563.
O=C1/C(=C\c2ccco2)SC(=S)N1c1ccccc1 gave a z-score of -0.0829.
Compound O=C(CCN1C(=O)/C(=C/c2ccc3c(c2)OCO3)SC1=S)Nc1ccccc1 has a z-score of 0.11.
Compound CC(OC(=O)c1cc(S(=O)(=O)N(C)c2ccccc2)ccc1Cl)C(=O)Nc1ccc2c(c1)OCCO2 (centres undefined) has a z-score of 0.0164.
O=C(O)c1ccc(C(=O)c2ccc3c(c2)C(=O)N(Cc2ccco2)C3=O)cc1 gave a z-score of -0.873.
With COc1cc2cc(C)c(SCC(=O)N3CCOCC3)nc2cc1OC the z-score was -0.234.
In the case of Cc1nc(SCc2ccc(Br)cc2)[nH]c(=O)c1C, the z-score is reported as -0.743.
In the case of O=c1[nH]c(CCl)nc2cc(-c3ccc(Cl)cc3)sc12, the z-score is reported as -0.12.
Work on O=C1NC(c2ccco2)Nc2sc3c(c21)CCN(Cc1ccccc1)C3 (centres undefined) yielded a z-score of -0.668.
In the case of CC(=O)Nc1ccc(Oc2cnccn2)cc1, the z-score is reported as -0.0949.
COc1ccc(OC)c(C2C3CN(C(C)C)CC=C3C(C#N)=C(N)C2(C#N)C#N)c1 (centres undefined) showed a z-score of -0.554.

Reference: PubChem BioAssay AID488969 (Vanderbilt High Throughput Screening Facility, 2010)
